In all, about 310,000 compounds went through this assay and about 14,000 (4.5%) showed an effect of 50% or more. Effects have a minus sign here. The list shows a part of the results.
Molecular target: human ether-à-go-go-related gene (hERG) potassium channel (human, UniProt Q12809)
Test: primary screen, population patch clamp on CHO cells stably expressing hERG
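Further: peak tail current of the secondary pulse compared with the same well before compound.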

human ether-à-go-go-related gene (hERG) potassium channel, sequence (Q12809 whole entry, looked up): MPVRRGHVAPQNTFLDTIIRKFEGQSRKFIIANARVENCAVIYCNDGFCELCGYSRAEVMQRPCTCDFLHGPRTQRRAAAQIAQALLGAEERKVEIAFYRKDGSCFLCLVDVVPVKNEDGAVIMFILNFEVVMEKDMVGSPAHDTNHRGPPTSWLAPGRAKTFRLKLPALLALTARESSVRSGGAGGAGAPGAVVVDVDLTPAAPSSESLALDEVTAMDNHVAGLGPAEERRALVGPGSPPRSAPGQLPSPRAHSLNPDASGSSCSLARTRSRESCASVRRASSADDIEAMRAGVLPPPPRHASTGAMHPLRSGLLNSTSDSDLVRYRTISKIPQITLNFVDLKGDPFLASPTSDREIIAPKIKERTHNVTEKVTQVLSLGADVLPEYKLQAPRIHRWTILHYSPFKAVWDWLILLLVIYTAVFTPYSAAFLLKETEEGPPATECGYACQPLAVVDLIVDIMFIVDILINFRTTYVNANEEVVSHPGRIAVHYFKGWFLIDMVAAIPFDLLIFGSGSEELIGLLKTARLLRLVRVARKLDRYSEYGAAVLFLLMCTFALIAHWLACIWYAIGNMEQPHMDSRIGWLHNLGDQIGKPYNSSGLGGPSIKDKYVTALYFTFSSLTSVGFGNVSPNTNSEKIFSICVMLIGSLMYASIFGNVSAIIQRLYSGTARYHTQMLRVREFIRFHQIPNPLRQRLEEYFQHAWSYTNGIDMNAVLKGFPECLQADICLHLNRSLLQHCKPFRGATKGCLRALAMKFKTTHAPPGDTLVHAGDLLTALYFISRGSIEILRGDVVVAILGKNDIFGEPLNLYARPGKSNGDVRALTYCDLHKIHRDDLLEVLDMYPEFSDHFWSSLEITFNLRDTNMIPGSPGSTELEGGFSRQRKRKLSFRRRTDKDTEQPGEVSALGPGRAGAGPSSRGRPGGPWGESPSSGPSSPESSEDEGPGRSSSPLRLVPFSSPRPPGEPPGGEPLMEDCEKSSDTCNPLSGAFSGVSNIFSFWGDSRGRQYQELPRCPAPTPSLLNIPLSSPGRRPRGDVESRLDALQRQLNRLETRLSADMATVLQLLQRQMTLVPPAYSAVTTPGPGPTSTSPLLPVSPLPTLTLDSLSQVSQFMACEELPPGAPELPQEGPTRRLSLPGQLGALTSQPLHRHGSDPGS

SMILES	hERG current change (%, negative = inhibition) at 10uM [%]
COc1cc(-c2nnc(Cn3cc(C(F)(F)F)ccc3=O)o2)cc(OC)c1OC	-3
CCN1CCc2c(OCC(=O)Nc3cccc(C)c3C)cccc2C1=O	-17.1
O=C(O)/C=C/c1cn(Cc2ccccc2)nc1-c1cccnc1	12
CC(=O)N(C1=C(O)c2ccccc2C(=O)C1=O)C1CCCCC1	-2.34
COc1ccc2c(c1)[C@@H]1[C@H](CO2)[C@H](c2ccccc2)[C@]2(C)C(=O)NCC(=O)N12	4.48
CCN(CC)C(=S)SCC(=O)c1ccc(Br)cc1	13.3
CN1CCN(NC(=O)c2cccc(C(F)(F)F)c2)CC1	0.224
COc1ccc(-c2[nH]ncc2/C=N\NC(=O)c2cccs2)cc1OC	-22.6
CC1CN(S(=O)(=O)c2cccc(C(=O)NCCCn3ccnc3)c2)CC(C)O1.Cl (stereo not shown)	6.18
CCn1nnc(-c2ccccc2NC(=O)C(F)(F)F)n1	-9.9
Cc1ccn2cc(CCNS(=O)(=O)c3ccc(F)c(C(F)(F)F)c3)nc2c1	-18.5
Cc1nn(-c2ccccc2)c(Oc2ccccc2)c1C=O	-6.92
CCCCOc1ccccc1NC(=O)CSc1nnnn1C(C)(C)C	-21.1
CCOC(=O)c1sc(NC(=O)CCCn2nc([N+](=O)[O-])c(Cl)c2C)c(C(=O)OCC)c1C	-3.72
CC12CC[C@H]3[C@@H](CCC4(O)C[C@H](O)CCC34/C=N/NC(=O)c3ccc(O)cc3)C1(O)CCC2C1=CC(=O)OC1 (stereo partly shown)	15
Cc1sc(NC(=S)NC(=O)CCc2ccccc2)c(C(N)=O)c1C	21.6
NCCCC[C@@H](C(=O)NCCCCCCCCCCC(=O)N1CCNCC1)n1cc(CCCC(=O)O)nn1	-1.54
COC(=O)c1ccc(CC(C(=O)c2ccccc2)N(C)C)cc1.Cl (stereo not shown)	10.3
O=c1[nH][nH]c(C(F)(F)F)c1C=Nc1ccc(Cl)cc1	0.892
CC(C)(C)n1nc2c(c1NC(=O)Cc1cccs1)CSC2	7.14
COc1ccc(-n2nnnc2SCC(=O)NCCc2ccc(OC)c(OC)c2)cc1	-14.2
Cc1cccc(NC(=O)c2ccccn2)c1C	-6.23

SMILES	hERG current change (%, negative = inhibition) at 10uM [%]
Nc1nonc1-n1nnc(C(=O)N/N=C/c2cccnc2)c1-c1cccs1	-3.54
CCNC(=S)NNC(=O)c1csc(C(C)C)c1	-7.65
O=C(N/N=C/c1ccc2ncccc2c1)c1cccc([N+](=O)[O-])c1	18.5
COC(=O)c1ccc(CSc2ccc3nnc(-c4ccccn4)n3n2)o1	-62.8
CCc1ccc(C(=O)/C=C/c2cnn(C)c2C)s1	-23.3
CCc1sc(C(=O)N2CCN(c3ccc(F)cc3)CC2)cc1C	-16.3
Cn1c(=O)c2c([nH]c(=S)n2CCCc2ccccc2)n(C)c1=O	15.5
O=C1NC(c2cc(Cl)cc([N+](=O)[O-])c2O)Nc2ccccc21 (stereo not shown)	-1.99
CC(C)(Oc1ccc(Cl)cc1)C(=O)O/N=C(\N)c1ccncc1	-13.4
Cc1ccc(C(=O)CC(C(=O)O)P(=O)(c2ccccc2)c2ccccc2)cc1 (stereo not shown)	25.1
Cc1cccc(CN(C)C)c1OC(=O)N(C)C.Cl	-25.9
O=C(CCC1CCCCC1)NCc1ccncc1	-3.77
CCOC(=O)c1ccc(-c2ccc(/C=C(\C#N)C(=O)NCc3cccs3)o2)cc1	18
CCc1nnc(NC(=O)CCc2ccccc2OC)s1	12.7
O=C(CSc1nnc(-c2ccc(F)cc2)n1-c1ccccc1)NCCN1C(=O)CSC1=O	-20.6
COc1ccc(Cl)cc1NC(=O)CN(C(=O)c1ccco1)C1CCCCC1	-2.36
O=[N+]([O-])c1ccc(N2CCN(CC3CCCCC3)CC2)cc1	-63
CN1CCN(CC/C=C2/c3ccccc3Sc3ccc(S(=O)(=O)N(C)C)cc32)CC1	-64.7
CCOc1ccc2[nH]c(=O)c(CN(Cc3ccccc3OC)C(=O)c3ccccc3)cc2c1	-14.9
CSc1ccc2c(c1)C(N1CCN(C)CC1)Cc1ccccc1S2.O=C([O-])/C=C\C(=O)[O-] (stereo not shown)	-65.2
CCOC(=O)c1ccc(NC(=O)N2CCc3ccccc3C2)cc1	1.92
Cc1ccc(CC(=O)NCCN2CCOCC2)cc1	19.2

SMILES	hERG current change (%, negative = inhibition) at 10uM [%]
O=C(N/N=C/c1ccc(N2CCOCC2)o1)c1cccc(F)c1	-2.96
CCOC(=O)c1cnc2c(C)cccc2c1NCCCN1CCOCC1	-72.8
COc1ccc(C(C)(C)C)cc1S(=O)(=O)N1CCN(C)CC1	-9.05
CCOC(=O)CCSc1nc(C)c2cc(OC)ccc2n1	-19.7
c1ccc(-c2cn3nc4c(nc3n2)CCCC4)cc1	-18.9
COc1ccc(-c2cc(=O)oc3cc(OC(C)C(=O)NCc4ccccn4)ccc23)cc1 (stereo not shown)	-54.8
CC(C)(C)OC(=O)CNC(=O)c1nc[nH]c1C(=O)NCC(=O)OC(C)(C)C	3.98
O=C1CN(C(=O)CNC(=O)c2ccccc2Cl)c2ccccc2N1	8.79
O=C(CC1(O)C(=O)Nc2ccc(Br)cc21)c1ccc2c(c1)OCO2 (stereo not shown)	-12.3
Cc1c(Cl)cccc1N=c1c([N+](=O)[O-])nn(-c2ccccc2)n1O	-4.05
COc1ccc(OC)c2c(C)cc(C)nc12	1.95
COc1cc(CN(C)C(C)C(=O)Nc2ccc([N+](=O)[O-])cc2Cl)ccc1OC(F)F (stereo not shown)	-4.87
Cc1cc(N/N=C2/CCCc3ccccc32)nc2ccccc12	43.3
O=C(O/N=C1\CCCc2ccccc21)c1cccs1	15.7
Br.CC1(C(=O)CSc2n[nH]c(-c3ccccc3Cl)n2)CCC(=O)O1 (stereo not shown)	6.53
CC1(C)Cc2cccc(OCC(=O)N3CCN(c4ccc(F)cc4)CC3)c2O1	-69.5
COc1ccc(S(=O)(=O)N2CCOCC2)cc1N(C)S(=O)(=O)c1ccc(C)cc1	0.666
CCC(=O)Nc1cc(-c2nn(C)c(=O)c3ccccc23)ccc1N1CCCCC1	-22.7
Cc1cc2n(n1)SC(Nc1ccccc1)N2 (stereo not shown)	1.94
Cc1cc(=O)[nH]c(N/N=C/c2c(C)nn(-c3ccc(F)cc3)c2Cl)n1	-3.64
Cc1cc(N/C=C(\C#N)S(=O)(=O)c2ccccc2Cl)nc(C)n1	-9.32
CCn1c(SCC(=O)Nc2nc3ccccc3s2)nnc1-c1ccc(Br)cc1	-0.534

SMILES	hERG current change (%, negative = inhibition) at 10uM [%]
COC(=O)/C=C/c1cc(F)ccc1S(=O)(=O)NC(C)(C)C	-7.41
CCOC(=O)c1[nH]ncc1CN1CCCC(C(=O)c2cccc(OC(C)C)c2)C1 (stereo not shown)	-42.1
CC(C)(NC(=O)N1CCOCC1)c1cccc(C(C)(C)NC(=O)N2CCOCC2)c1	22
O=C(CSc1nnnn1C1CC1)Nc1ccc(S(=O)(=O)N2CCOCC2)cc1	11.2
O=C(Nc1ccc(S(=O)(=O)N2CCCCC2)cc1)c1cnccn1	12.5
COc1cccc(CC2(CO)CCN(S(=O)(=O)c3ccc(OC)cc3OC)CC2)c1	-10.7
CC(C)(C)c1nnc(NC(=O)C2CCN(c3ncccn3)CC2)s1	-0.927
N#C/C(=C\c1ccc(OC(=O)c2ccc(Cl)s2)cc1)c1nc2ccccc2[nH]1	6.95
O=C(O)Cc1sc(NCCc2ccccc2)nc1-c1ccc(F)cc1	3.77
O=C(/C=C/c1ccccc1)N1CCN(C(=O)c2ccco2)CC1	-28.6
CC(OC(=O)CNC(=O)c1ccc(Cl)cc1)C(=O)NC1CCCCC1C (stereo not shown)	7.38
CCOc1ccc(C(CC(=O)O)NC(=O)c2ccco2)cc1OC (stereo not shown)	8.09
CC(C)(C)NC(=O)NC(=O)CSc1nnc2ccccn12	-2.98
O/N=C/c1cn(-c2ccccc2)nc1-c1ccccc1	18.6
Cc1cc(C)c2cc(CN(Cc3nnnn3Cc3ccc(F)cc3)C3CCCC3)c(=O)[nH]c2c1	-4.26
CN1CCN(C(=O)CCN2C(=O)/C(=C\c3ccc(Cl)cc3Cl)SC2=S)CC1	11.8
Cc1onc(-c2ccccc2Cl)c1C(=O)Nc1ccc(N2CCOCC2)cc1	-11.8
Cc1ccc(NC(=O)CCn2cnc3ccccc3c2=O)cc1	15
Cc1cccc(N2CCN(C(=O)COCc3cc(-c4ccc5c(c4)OCO5)on3)CC2)c1C	-3.21
O=c1[nH]c(/C=C/c2ccccc2Cl)nc2ccccc12	10
C=CCNC(=S)NNC(=O)CCC(O)COCCC(C)C (stereo not shown)	-0.312
CCOC(=O)c1ccccc1NC(=O)CCNC(=O)Cn1cnc2ccccc2c1=O	3.37

Source: publication PMC4336329 (PLoS ONE, 2015)
